Results: publication PMC4336329 (PLoS ONE, 2015)
The whole screen tested about 310,000 compounds, of which about 2,200 (0.71%) showed an effect of 50% or more. The effect is printed as a negative number. The list shows a part of the results.

The compounds below were run against human ether-à-go-go-related gene (hERG) potassium channel (human, UniProt Q12809) (assay: primary screen, population patch clamp on CHO cells stably expressing hERG).
Chain of human ether-à-go-go-related gene (hERG) potassium channel (Q12809 whole entry, looked up): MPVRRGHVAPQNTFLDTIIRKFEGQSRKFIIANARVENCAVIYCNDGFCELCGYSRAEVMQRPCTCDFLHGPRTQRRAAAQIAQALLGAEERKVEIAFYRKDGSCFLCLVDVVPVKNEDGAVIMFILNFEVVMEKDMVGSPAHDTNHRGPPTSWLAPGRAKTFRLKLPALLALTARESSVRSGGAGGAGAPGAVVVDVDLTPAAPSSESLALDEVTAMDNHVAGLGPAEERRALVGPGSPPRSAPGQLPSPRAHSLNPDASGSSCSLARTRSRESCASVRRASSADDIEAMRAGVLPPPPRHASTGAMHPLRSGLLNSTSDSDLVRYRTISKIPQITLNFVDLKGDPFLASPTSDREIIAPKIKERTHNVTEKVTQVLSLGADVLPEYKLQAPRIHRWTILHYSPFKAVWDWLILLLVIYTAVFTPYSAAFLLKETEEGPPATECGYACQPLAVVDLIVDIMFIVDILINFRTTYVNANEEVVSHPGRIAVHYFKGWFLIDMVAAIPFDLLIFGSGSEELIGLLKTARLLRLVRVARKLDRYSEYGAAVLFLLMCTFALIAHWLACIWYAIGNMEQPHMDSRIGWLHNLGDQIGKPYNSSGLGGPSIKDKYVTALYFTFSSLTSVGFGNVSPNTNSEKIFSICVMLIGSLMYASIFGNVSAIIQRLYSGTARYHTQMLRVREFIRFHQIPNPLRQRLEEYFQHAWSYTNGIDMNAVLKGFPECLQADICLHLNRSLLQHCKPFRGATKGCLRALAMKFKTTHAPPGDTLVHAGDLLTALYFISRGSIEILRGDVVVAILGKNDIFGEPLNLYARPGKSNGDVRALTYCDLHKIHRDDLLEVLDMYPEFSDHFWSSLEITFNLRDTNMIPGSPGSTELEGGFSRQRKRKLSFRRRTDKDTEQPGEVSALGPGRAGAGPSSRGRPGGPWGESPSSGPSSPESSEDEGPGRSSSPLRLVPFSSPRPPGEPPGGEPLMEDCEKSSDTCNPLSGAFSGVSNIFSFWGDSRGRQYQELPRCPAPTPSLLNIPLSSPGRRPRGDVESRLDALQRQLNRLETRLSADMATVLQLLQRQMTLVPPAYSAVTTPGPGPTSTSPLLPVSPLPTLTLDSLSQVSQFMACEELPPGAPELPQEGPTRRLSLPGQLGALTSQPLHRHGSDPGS

Structure (SMILES) | hERG current change (%, negative = inhibition) at 1uM [%]
CCOc1ccccc1C(=O)NCC(=O)NNC(=O)c1cccc(S(=O)(=O)Nc2ccc(OC)cc2)c1 | 8.96
Cc1ccc(CC(=O)O/N=C(\N)c2ccncc2)cc1 | 15.3
CCC(=O)N1c2ccccc2NC2=C(C(=O)CCC2)C1c1ccccc1 (centres unmarked) | 14
O=C(Nc1nn[nH]n1)c1cc(-c2ccc(Cl)c(Cl)c2Cl)nc2ccccc12 | 20.8
COc1ccnc2c1c(=O)n(Cc1cccc(F)c1)c(=O)n2C | 8.91
C/C=C(\C)CN1CCN(c2ccccc2)CC1 | 7.34
CC12CCC(=O)N1C(C(=O)Nc1ccc(Cl)c(Cl)c1)CS2 (centres unmarked) | -0.234
Cc1ccccc1OCC(=O)Nc1nnc(-c2ccncc2)s1 | 9.52
Cc1cc(C(F)F)n2ncc(C(=O)NC3CCCCCC3)c2n1 | 8.73
CC(CCN1CCN(c2ccccc2)CC1)c1ccccc1.Cl (centres unmarked) | -1.29
N#Cc1ccccc1Cn1c(-c2cscn2)nc2ccccc21 | -0.0773
COCCN1CCN(C(=O)C2CCC(=O)N(CCc3ccc(Cl)cc3)C2)CC1 (centres unmarked) | 8.76
Cc1[nH]n(-c2nc(-c3ccccc3)cc(=O)[nH]2)c(=O)c1CCO | 5.84
Cc1cc2c(Nc3ccc(O)cc3)ncnc2s1.Cl | 12.7
O=C1c2ccccc2C(=O)N1CCc1nc(-c2cccnc2)no1 | 7.12
Nc1ncc(Br)cc1S(=O)(=O)Nc1ccccc1F | 15.1
CC(=O)NC(CCS(C)(=O)=O)C(=O)Nc1c(C)cccc1C (centres unmarked) | 6.33
COc1ccc2c(c1)c(/C=N/Nc1ccc(C(=O)O)cc1)c(C)n2C | 18.3
Cc1cc(NCCCN2CCOCC2)n2ncc(-c3ccc(Cl)cc3)c2n1 | 12.8
Cn1c(=O)c2c3c(sc2n2c(SCC(N)=O)nnc12)CC(C(C)(C)C)CC3 (centres unmarked) | 8.14

Structure (SMILES) | hERG current change (%, negative = inhibition) at 1uM [%]
CCOC(=O)C(=CNc1cscc1S(=O)(=O)C(C)C)C(=O)OCC | 13.8
CCN(CC)C(=O)C1CCC(CNS(=O)(=O)c2cccc3cccnc23)CC1 (centres unmarked) | 9.13
COC(=O)c1ccccc1NC(=S)NC(=O)COc1ccccc1Cl | -7.19
CCOc1ccc(OCCn2c(=S)[nH]c3c(N)ncnc32)cc1 | 10.3
CCOc1ccc(N2C(=O)c3ccc(C(=O)OCc4c(C)noc4C)cc3C2=O)cc1 | 9.07
CCOCCCn1c(SCC(=O)NC2CCCC2)nc2ccccc2c1=O | 7.96
CNC(=O)COc1ccc2oc3c(c2c1)CCCC3 | 12.7
COc1ccc(C(=O)OCC(=O)Nc2ccc3[nH]c(=O)[nH]c3c2)cc1 | 3.04
CCN1C(=O)C(=Cc2ccc(N3CCOCC3)o2)C(=O)N(CC)C1=S | 11.8
Cc1cc(C)cc(OCC(O)CN2CCN(C(=O)c3ccco3)CC2)c1 (centres unmarked) | 6.18
O=C(NCc1ccc2c(c1)OCO2)C1CCCN1C(=O)Nc1ccccc1 (centres unmarked) | 7.05
COc1cc(CN2CC(C)OC(C)C2)cc(OC)c1 (centres unmarked) | -2.68
Cc1ccc(N2C(N)=C(C#N)C(c3cccs3)C3=C2CC(C)(C)CC3=O)cc1 (centres unmarked) | 5.24
CCOc1ccc(-c2cccc(NS(=O)(=O)c3cc([N+](=O)[O-])ccc3C)c2)nn1 | -4.18
Cc1cc(C)c2nc(C)cc(Nc3ccc(C(=O)N4CCOCC4)cc3)c2c1 | 2.81
CN(C)CC1CSCCC1(O)c1ccccc1.Cl (centres unmarked) | 4.1
O=C(Nc1ncn[nH]1)c1ccc([N+](=O)[O-])cc1[N+](=O)[O-] | 18.3
CN(C(=O)c1ccc2c(=O)n3c(nc2c1)CCCCC3)c1ccccc1 | 9.35
Clc1ccc(/C=N/Nc2ccccn2)cc1 | 16.6
O=S(=O)(Cc1ccccc1)Nn1cnnc1 | 13.3

Structure (SMILES) | hERG current change (%, negative = inhibition) at 1uM [%]
CCN1CCN(CCCNC(=O)c2ccc3c(Cl)c4c(nc3c2)CCCC4)CC1 | -8.96
Cc1ccccc1N1CC(C(=O)Nc2ccc(S(=O)(=O)N3CCOCC3)cc2)CC1=O (centres unmarked) | 8.31
CC1CN=C(N(C(=O)Nc2ccccc2)c2ccc(S(=O)(=O)N3CCOCC3)cc2)S1 (centres unmarked) | 1.89
CCCCCCc1c(O)c2ccccc2[nH]c1=O | 0.504
CCc1c(C)nc2nc(NC(C)=O)[nH]n2c1=O | 16.2
CC(C)SCc1nc2ccccc2[nH]1 | 1.34
CCCS(=O)(=O)N1CCC(C(=O)NCc2ccccc2Cl)CC1 | 10.2
COc1ccc(C2CC(c3ccc(C)cc3)Nc3nc(N)nn32)cc1 (centres unmarked) | 7.13
O=C(Cc1cccs1)NNC(=S)NC(=O)c1ccc(F)c(F)c1 | 11.5
O=C(Oc1ccc(=O)n(-c2ccccc2)n1)c1ccc(Cl)cc1 | 8.77
CCCn1ncc(/C=N/O)c1C | 12.5
CC(=Nc1cccc(O)c1)c1sc2ccccc2c1O | 12.2
O=C(/C=C/c1ccco1)NC(=S)Nc1cc(-c2nc3ccccc3s2)ccc1Cl | 4.95
Cc1cc(C)n(CCc2nc3c4ccccc4n(CC#N)c(=O)n3n2)n1 | 9.38
COCCNC(=O)C(=O)Nc1ccc2c(c1)N(S(=O)(=O)c1cccs1)CCC2 | 13.5
O=C1CSCN1c1cc(Cl)ccc1Cl | 9.56
COc1ccc(S(=O)(=O)N2CCC(Cc3ccccc3)CC2)cc1C(N)=O | 20.8
CCCNS(=O)(=O)c1cccc(C(=O)NNC(=O)c2cc(C)oc2C)c1 | 15.2
Cc1c(C(=O)C(=O)NCCC2=CCCCC2)c2ccccc2n1C | 10.4
